Experimental data as given in the supplement of paper PMC8728848.
The list shows a part of the results.

What was measured:
Experiment in all cases: glycan array binding signal (z-score within array); higher = stronger binding
Details in all cases: glycan notation: IUPAC condensed, linker removed
Fuc(a1-2)Gal = biological target: Fuc(a1-2)Gal
Outline: (§1)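 Arrays were curated from the Consortium for Functional Glycomics database, 3228 in total, and kept only where the protein sequence was available. Binding is expressed as a within-array Z-score. This score was averaged across arrays of the same protein sequence at different concentrations or buffers and across linkers, and negative values can be read as non-binding.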

Fuc(a1-2)Gal(b1-3)GalNAc = biological target: Fuc(a1-2)Gal(b1-3)GalNAc
Outline: as §1

[1] = biological target: Fuc(a1-2)Gal(b1-3)GalNAc(a1-3)[Fuc(a1-2)]Gal(b1-4)Glc
Outline: as §1

[2] = biological target: Fuc(a1-2)Gal(b1-3)GalNAc(a1-3)[Fuc(a1-2)]Gal(b1-4)GlcNAc
Outline: as §1

[3] = biological target: Fuc(a1-2)Gal(b1-3)GalNAc(b1-3)Gal
Outline: as §1

[4] = biological target: Fuc(a1-2)Gal(b1-3)GalNAc(b1-3)Gal(a1-4)Gal(b1-4)Glc
Outline: as §1

[5] = biological target: Fuc(a1-2)Gal(b1-3)GalNAc(b1-4)[Neu5Ac(a2-3)]Gal(b1-4)Glc
Outline: as §1

Fuc(a1-2)Gal(b1-3)GlcNAc = biological target: Fuc(a1-2)Gal(b1-3)GlcNAc
Outline: as §1

[6] = biological target: Fuc(a1-2)Gal(b1-3)GlcNAc(b1-2)Man(a1-3)[Fuc(a1-2)Gal(b1-3)GlcNAc(b1-2)Man(a1-6)]Man(b1-4)GlcNAc(b1-4)GlcNAc
Outline: as §1

[7] = biological target: Fuc(a1-2)Gal(b1-3)GlcNAc(b1-2)Man(a1-3)[Fuc(a1-2)Gal(b1-3)GlcNAc(b1-2)Man(a1-6)]Man(b1-4)GlcNAc(b1-4)[Fuc(a1-6)]GlcNAc
Outline: as §1

[8] = biological target: Fuc(a1-2)Gal(b1-3)GlcNAc(b1-3)Gal(b1-4)Glc
Outline: as §1

[9] = biological target: Fuc(a1-2)Gal(b1-3)GlcNAc(b1-3)GalNAc
Outline: as §1

[10] = biological target: Fuc(a1-2)Gal(b1-3)GlcNAc(b1-3)[Fuc(a1-2)Gal(b1-3)GlcNAc(b1-6)]GalNAc
Outline: as §1

[11] = biological target: Fuc(a1-2)Gal(b1-3)GlcNAc(b1-3)[Gal(b1-4)GlcNAc(b1-6)]Gal(b1-4)Glc
Outline: as §1

[12] = biological target: Fuc(a1-2)Gal(b1-3)GlcNAc(b1-3)[Neu5Ac(a2-6)Gal(b1-4)GlcNAc(b1-6)]Gal(b1-4)Glc
Outline: as §1

[13] = biological target: Fuc(a1-2)Gal(b1-3)GlcNAc6S
Outline: as §1

[14] = biological target: Fuc(a1-2)Gal(b1-3)[Fuc(a1-4)]GlcNAc
Outline: as §1

[15] = biological target: Fuc(a1-2)Gal(b1-3)[Fuc(a1-4)]GlcNAc(b1-2)Man(a1-3)[Fuc(a1-2)Gal(b1-3)[Fuc(a1-4)]GlcNAc(b1-2)Man(a1-3)]Man(b1-4)GlcNAc(b1-4)GlcNAc
Outline: as §1

[16] = biological target: Fuc(a1-2)Gal(b1-3)[Fuc(a1-4)]GlcNAc(b1-2)Man(a1-3)[Fuc(a1-2)Gal(b1-3)[Fuc(a1-4)]GlcNAc(b1-2)Man(a1-6)]Man(b1-4)GlcNAc(b1-4)[Fuc(a1-6)]GlcNAc(b1-4)[Fuc(a1-6)]GlcNAc
Outline: as §1

[17] = biological target: Fuc(a1-2)Gal(b1-3)[Fuc(a1-4)]GlcNAc(b1-3)[Fuc(a1-3)[Gal(b1-4)]GlcNAc(b1-6)]Gal(b1-4)Glc
Outline: as §1

[18] = biological target: Fuc(a1-2)Gal(b1-3)[Fuc(a1-4)]GlcNAc(b1-3)[Gal(b1-4)GlcNAc(b1-6)]Gal(b1-4)Glc
Outline: as §1

Fuc(a1-2)Gal(b1-4)Glc = biological target: Fuc(a1-2)Gal(b1-4)Glc
Outline: as §1

Fuc(a1-2)Gal(b1-4)Glc6S = biological target: Fuc(a1-2)Gal(b1-4)Glc6S
Outline: as §1

Fuc(a1-2)Gal(b1-4)GlcNAc = biological target: Fuc(a1-2)Gal(b1-4)GlcNAc
Outline: as §1

[19] = biological target: Fuc(a1-2)Gal(b1-4)GlcNAc(b1-2)Man
Outline: as §1

[20] = biological target: Fuc(a1-2)Gal(b1-4)GlcNAc(b1-2)Man(a1-3)[Fuc(a1-2)Gal(b1-4)GlcNAc(b1-2)Man(a1-6)]Man(b1-4)GlcNAc(b1-4)GlcNAc
Outline: as §1

[21] = biological target: Fuc(a1-2)Gal(b1-4)GlcNAc(b1-2)Man(a1-3)[Fuc(a1-2)Gal(b1-4)GlcNAc(b1-2)Man(a1-6)]Man(b1-4)GlcNAc(b1-4)[Fuc(a1-6)]GlcNAc
Outline: as §1

[22] = biological target: Fuc(a1-2)Gal(b1-4)GlcNAc(b1-2)[Fuc(a1-2)Gal(b1-4)GlcNAc(b1-4)]Man(a1-3)[Fuc(a1-2)Gal(b1-4)GlcNAc(b1-2)Man(a1-6)]Man(b1-4)GlcNAc(b1-4)GlcNAc
Outline: as §1

[23] = biological target: Fuc(a1-2)Gal(b1-4)GlcNAc(b1-3)Gal(b1-4)GlcNAc
Outline: as §1

[24] = biological target: Fuc(a1-2)Gal(b1-4)GlcNAc(b1-3)Gal(b1-4)GlcNAc(b1-2)Man(a1-3)[Fuc(a1-2)Gal(b1-4)GlcNAc(b1-3)Gal(b1-4)GlcNAc(b1-2)Man(a1-6)]Man(b1-4)GlcNAc(b1-4)GlcNAc
Outline: as §1

B1: PX9961H-bth-557-24-557 (Bacteroides thetaiotaomicron) (protein)
chain: EETRTEVEKKNYMNNAEEAKDVLLGVYRTNTLDAMYGYYLSILFNLGTDISQVEGSGNENFRIIPTNSFPTTQSEVQQTWAALYTGIYRANDFLERISNKIGSYTTTDKKLATLYIAEARALRGMFYFELVRRFGNVVLMTSTQMSNQNPATYVQSAPEKVYEYIEDDLLYACDILPYATDDQYRESNDYRFSKGAALGLLTKVYATWAGYPVKDESKWEAAAKTARILVESGKHGLLKDYEQLWKNTCNGTWDPTESLIEISFYSPTVSGNSDPVGRIGKWNGVKTTAIAGVRGSCAANVKVVHTFVLDWREDVSDIRRDLSIANYQYTDTKKSLWVAGASDTDESAAEKDADPTKAQKNKQNYTPAKWDIQKYVTTNSFINNDKSNVNWYFLRYADVLLLYAEALNEWKHGPDAEAYNAINAVRRRGYGNPSNTSACDLPQGLDETSFREAVRKERSYELSFEGHRRQDLIRWGIYYKTVQATAKELGYWWEGTGSPNYSVATYTEEGKHELFPIPQRDMDLCIQFNQNPKW
Question: What does the source list for B1?
Answer: glycan array binding signal (z-score) (Fuc(a1-2)Gal): -0.153; glycan array binding signal (z-score) (Fuc(a1-2)Gal(b1-3)GalNAc): -0.325; glycan array binding signal (z-score) [1]: -0.462; glycan array binding signal (z-score) [2]: -0.38; glycan array binding signal (z-score) [3]: -0.064; glycan array binding signal (z-score) [4]: -0.263; glycan array binding signal (z-score) [5]: -0.543; glycan array binding signal (z-score) (Fuc(a1-2)Gal(b1-3)GlcNAc): -0.431; glycan array binding signal (z-score) [6]: 3.58; glycan array binding signal (z-score) [7]: -0.438; glycan array binding signal (z-score) [8]: -0.338; glycan array binding signal (z-score) [9]: 0.055; glycan array binding signal (z-score) [10]: -0.177; glycan array binding signal (z-score) [11]: 1.19; glycan array binding signal (z-score) [12]: -0.391; glycan array binding signal (z-score) [13]: -0.308; glycan array binding signal (z-score) [14]: -0.384; glycan array binding signal (z-score) [15]: -0.045; glycan array binding signal (z-score) [16]: 0.048; glycan array binding signal (z-score) [17]: -0.382; glycan array binding signal (z-score) [18]: -0.405; glycan array binding signal (z-score) (Fuc(a1-2)Gal(b1-4)Glc): -0.466; glycan array binding signal (z-score) (Fuc(a1-2)Gal(b1-4)Glc6S): -0.342; glycan array binding signal (z-score) (Fuc(a1-2)Gal(b1-4)GlcNAc): -0.309; glycan array binding signal (z-score) [19]: -0.188; glycan array binding signal (z-score) [20]: 1.25; glycan array binding signal (z-score) [21]: 0.16; glycan array binding signal (z-score) [22]: 3.23; glycan array binding signal (z-score) [23]: -0.446; glycan array binding signal (z-score) [24]: -0.206
